To fix the notation:
T1: UNK ZnF1-3 (human, UniProt Q9C0B0 31-174)
T1 sequence: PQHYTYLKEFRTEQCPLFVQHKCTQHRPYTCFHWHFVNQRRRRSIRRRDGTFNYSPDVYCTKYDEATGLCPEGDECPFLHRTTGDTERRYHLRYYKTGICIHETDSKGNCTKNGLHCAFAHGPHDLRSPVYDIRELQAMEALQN

B1: chr18:34792849:34792850:-_ENSMUSG00000024370_ENSMUST00000133181|mus_hu|FALSE|FALSE (ssRNA)
RNA: GGGAGUUCUACAGUCCGACGAUCCAGCAGACAUUAUAGCAUAUUACCUCCUGCUGUACACACAUGCACAGGCCUGAAACUCUCCAAGAGCACCAUAAGAAUGAUUCCCUUUACCUCAUCUAGAUAAAGGCUGAAAAAAAUGUACAACAGAGGAUUGAGCAUCA
B2: 98312807_98321767_826_CDS_ENSG00000077147_ENST00000371142|human|control|control (ssRNA)
RNA: GGGAGUUCUACAGUCCGACGAUCCCAAUGAAUCCGAUGUUGAAAAAAGGACGGAUCAAGAUAUUUGUCAAAUCGAUCUUCAAAUUUCACAUCUGACUUUUUCCAUUUUACUGAAUAUGACAUCUGGAUUUUAGUAUUUGGAACCAACAGAGGAUUGAGCAUCA
B3: chr2:114699772:114699773:+_ENSG00000115091_ENST00000536059|hu_mus|FALSE|FALSE (ssRNA)
RNA: GGGAGUUCUACAGUCCGACGAUCUGACCCAUCGGUGUCAUACUUGUUAAACUCUUUUACUAAAUCUGGGCAGACAUAACUGUAGCGUUCCUUCACUGCUUUCGCAGUUUCCAAGGACUGCUCAGGAGGGAUUCCUACUUCUCGCAACAGAGGAUUGAGCAUCA
B4: chr10:5807933:5807934:-_ENSG00000057608_ENST00000380191|hu_mus|motif|central (ssRNA)
RNA: GGGAGUUCUACAGUCCGACGAUCGGGCUUACAGUAUUGAUUUCAUACAAUAUACAUUAUUUGCCAAAUUUUAAGUUUGUCCGGAUUAUUACAUAAUAUGUACUGCUGUUAGUCUUCUCCAUAAAUGUCAUUCUUCUUGCGCUUCAACAGAGGAUUGAGCAUCA
B5: chr9:107926503:107926504:+_ENSMUSG00000032594_ENSMUST00000035214|mus_hu|motif|central (ssRNA)
RNA: GGGAGUUCUACAGUCCGACGAUCGGGGGCCAGUUGCACACUGAGGGCAGAGGAUGCAGCACAUGGGCCACAAAAGGAGAGCGGCAUAGAAGGUCCUGGCCAGGUGAAAGCCAAUGGUCAGAUUCUAUUCAGCUUAUUAUUCUGCAACAGAGGAUUGAGCAUCA
B6: chr2:48026839:48026840:+_ENSG00000116062_ENST00000540021|hu_hu|hu_hu_hu_mus_False|38_98 (ssRNA)
RNA: GGGAGUUCUACAGUCCGACGAUCAUAGUGAGCCACUAGAGUCCUAAAUCUGGAACAGUGGCGGUCAUCCGAAAACUGGCCGAUGAAAAACUUGCCCAGUGAAGUAUCCACAAAGCAAACACCAUACACACGAGUGUGACCAGACAACAGAGGAUUGAGCAUCA
B7: chr10:33190432:33190433:-_ENSG00000150093_ENST00000302278|hu_mus|hu_hu_hu_mus_True|18_58 (ssRNA)
RNA: GGGAGUUCUACAGUCCGACGAUCUACAUUUUCCAAACCUGCAUGUGAAUAAAACCCUGGCCACAGAGCCCCAAAACUACCUAACUGUGACUAAGAUGCUGCUGCUGUGAGCUUGGUUGUUGUGGGACCGCCUGAGUAGGAUUCCAACAGAGGAUUGAGCAUCA
B8: chr1:46159212:46159213:+_ENSG00000159596_ENST00000372025|hu_mus|hu_hu_hu_mus_True|88_98 (ssRNA)
RNA: GGGAGUUCUACAGUCCGACGAUCUCUGAUCCCUCCCAAGAAAGAUAGGAAACUGGCUCCAUAAGCCAUCUGAGUGAAAGCUAGGACGGGGAUAUAAGACUUUGUUAUUACCAUGAGAAGUGGGGGAGCAGUAAAGGGGAUUAACAACAGAGGAUUGAGCAUCA
B9: chr9:59240146:59240147:-_ENSMUSG00000025234_ENSMUST00000171975|mus_mus|motif|central (ssRNA)
RNA: GGGAGUUCUACAGUCCGACGAUCGCGUCAAGGCCACAGAGGAGUAGGCUGGGAUAGGAUCAUUCAUGAACUGAAGCAACGGAACCCUUUAACAGGCCGAGGCAUUUGCUUAGAAUGUGACUUCCUGGAUCUAGAUCCAGAAGCCAACAGAGGAUUGAGCAUCA
B10: chr3:179287964:179287965:+_ENSG00000136518_ENST00000429709|hu_hu|hu_hu_hu_mus_True|28_68 (ssRNA)
RNA: GGGAGUUCUACAGUCCGACGAUCCUUGAGUGGUGAGAUGGCCUCCAUGUUCUCCCUGGGCACGCGGAGAGCAUUAGUGUCUAUGUAGUAGGUGGGCCCGCCCUGCUUGCCUUUAUCACCAUCAAUCUCCAUCAUUGUACUUCCCAACAGAGGAUUGAGCAUCA
B11: chr7:149068622:149068623:-_ENSMUSG00000025139_ENSMUST00000001950|mus_hu|mus_mus_mus_hu_False|38_58 (ssRNA)
RNA: GGGAGUUCUACAGUCCGACGAUCGUGAGGCCUCUGAGUGUGGCUUGUGGUCUGUCCUGGGUUAGAGUUGUUAAUAUCACUAAGUGGACCAUCUAGAGAGGUUCUGCCCCGCCUGACACCUUCAUUCCCAAUGGAGAAGAAAUCCAACAGAGGAUUGAGCAUCA
B12: chr3:196509625:196509626:+_ENSG00000180370_ENST00000327134|hu_hu|motif|central (ssRNA)
RNA: GGGAGUUCUACAGUCCGACGAUCAACAGAGGGCAAAGGUUUCAAACUGUGAUUGGCUGACAAAGGGUCUUUGCCUCCAGUGCGGAAGAUGGUGCUGCUCAUUCGCACAGGAGGUGCUGGAGGCUUAUCUUCCAGUUCUCCGUUCAACAGAGGAUUGAGCAUCA
B13: chr22:32879901:32879902:+_ENSG00000100225_ENST00000397426|hu_mus|hu_hu_hu_mus_False|18_98 (ssRNA)
RNA: GGGAGUUCUACAGUCCGACGAUCCUCUUCCAUACUCGCAUUAUCUUGAAUUGACUCAGCUUCAACAUUUUGACUAGGCCCUUCCAUACUGUCAUCAGUCCAGGCAUCAAAUGGGGUUGCCUGUCCUUGGGAUGAAUCAGUCCCCAACAGAGGAUUGAGCAUCA
B14: chr7:54825262:54825263:-_ENSG00000132432_ENST00000352861|hu_hu|hu_hu_hu_mus_False|38_98 (ssRNA)
RNA: GGGAGUUCUACAGUCCGACGAUCCUGCCGGCUGGGCACAAACUGCAGCAUUACCUGAUCCAUGUUUGUUGGAUGGCGGAUUGAGAGCGUAGAGACAACGUAGCACUGAGAGAACCGAGCCCAACGGAACCGGAAGCUGGCAACCAACAGAGGAUUGAGCAUCA
B15: chr1:45478652:45478653:+_ENSG00000126088_ENST00000246337|hu_mus|FALSE|FALSE (ssRNA)
RNA: GGGAGUUCUACAGUCCGACGAUCGCAAGCCUCGGGAGAUCGGCAGGUGCUGAAGAAGUCCUGGGCAGCCCUGGUUUCCCUAAACUCUGGUAAGUAGCGGCCUGCCUGUCUCAUGCACCAAACGGGAGUAUAGUCUGUUUCCUCCAACAGAGGAUUGAGCAUCA
B16: chr2:26332712:26332713:+_ENSG00000084733_ENST00000264710|hu_mus|motif|central (ssRNA)
RNA: GGGAGUUCUACAGUCCGACGAUCGUUUCUAAGCCACUUGCUGAUGUUCUCAAAGCUUUUACCGUUGGUGAUGUCAUACACGGGCAUGAUGCCCAUUGCUCCUCUGUAGUAGGAGGUUGUGAUGGUGUGAAAUCGCUCCUGGCCCAACAGAGGAUUGAGCAUCA
B17: 120165091_120165211_759_CDS_ENSMUSG00000027291_ENSMUST00000028752|mouse|control|control (ssRNA)
RNA: GGGAGUUCUACAGUCCGACGAUCUUUCUGAGUGCAGAUGCCUUCCUCGUUAAGCACCACAGUCAGAUCAUCCUGACCCACAGCCACUUUUCCAUCUGCCAGAGGGGCAACUAAGGGCUCCAGCUGCUUUCCUGUUGGGAAGAGCAACAGAGGAUUGAGCAUCA
B18: chr2:42509997:42509998:+_ENSG00000143924_ENST00000318522|hu_mus|hu_hu_hu_mus_True|68_108 (ssRNA)
RNA: GGGAGUUCUACAGUCCGACGAUCUCGCUGAGUUCUCUCCUCAUAAUUAAACAGGACUACCACUGAGGCAAUGAAAUAAACUAUCUCCCCUGUGGGAAGCAGGUAUACAUUCGCUCUACAGUCCUUUCCUCGAUAACCGUAUACCAACAGAGGAUUGAGCAUCA
B19: chr8:95500983:95500984:-_ENSG00000164944_ENST00000437199|hu_hu|hu_hu_hu_mus_True|38_38 (ssRNA)
RNA: GGGAGUUCUACAGUCCGACGAUCAGAACACAUCUAUCGAGUAAAGGACCGUACAUGACGGCCUCUACCACUGCCUCCACUAACAAACUUUCCUCUCUGAGCCUCCAUGCCGCUAUUUGUACUAGCCCAGGACGGUCCCAGGCCCAACAGAGGAUUGAGCAUCA
B20: chr2:216981417:216981418:+_ENSG00000079246_ENST00000392132|hu_hu|hu_hu_hu_mus_True|1_88 (ssRNA)
RNA: GGGAGUUCUACAGUCCGACGAUCCUGAUACUGGUCCUUGCCAGCAAGGGGAUUGUCAGUGCCAUCUGUGCCAUAGAGGACUAACGCAAUCUCAUCUUUGCUCUCCGAAAAUACCUGUCGUUGGACAAACAUAGUCAUCACCUUCAACAGAGGAUUGAGCAUCA
B21: chrX:101152592:101152593:-_ENSMUSG00000056537_ENSMUST00000070705|mus_hu|motif|central (ssRNA)
RNA: GGGAGUUCUACAGUCCGACGAUCUAAAUCUGCAGUAUGACAUCUUACAUAGGGAAAAAAGCUUCUUCCUAAAAGAUAACGGUUAAUAAUCAAACCAGCUUUAAUAUGAUUGACCUUUCAAGGUCUUGUUUUGCUUUAAACAAGCAACAGAGGAUUGAGCAUCA
B22: chr5:71593506:71593507:-_ENSG00000113048_ENST00000457646|hu_mus|motif|central (ssRNA)
RNA: GGGAGUUCUACAGUCCGACGAUCAUCUAGAUCUUCUCGGGAUGCAAUGUUGUCCACAAACCGUGAUAUUGAUAAAGAACGGACAGGCAAUUUUCUUUCAUACGCUUUGUCCAUUAAGGAUGCAAGAUCAGCCAGAUGGUAUUCCAACAGAGGAUUGAGCAUCA

Some of the results follow.

The target of this test is T1, UNK ZnF1-3. In words: nsRBNS (natural sequence RNA bind-n-seq); RBNS binding buffer (assumed for nsRBNS): 25 mM Tris pH 7.5, 150 mM KCl, 3 mM MgCl2, 0.01% Triton X-100, 500 ug/ml BSA, 20 U/ml SUPERase-In, 4 C; UNK is unkempt and MSI1 is Musashi-1; names of the RNAs are library labels; protein concentration not given here; high values mean tight binding.
In turn, B1 yielded a binding signal of 1.53 enrichment R.

In turn, B2 registered a binding signal of 0.495 enrichment R.

B3 returned a binding signal of 0.668 enrichment R.

B4 yielded a binding signal of 0.611 enrichment R.

In the case of B5, the binding signal stood at 2.67 enrichment R.

With B6, the binding signal came to 1.13 enrichment R.

Consider B7, for which the binding signal came to 1.41 enrichment R.

As for B8, the binding signal is 1.53 enrichment R.

Molecule B9 returned a binding signal of 1.29 enrichment R.

On to B10, for which the binding signal came out at 0.807 enrichment R.

B11 registered a binding signal of 0.944 enrichment R.

Turning to B12, the binding signal was 0.565 enrichment R.

Molecule B13 returned a binding signal of 1.1 enrichment R.

The molecule B14 registered a binding signal of 1.66 enrichment R.

B15 displayed a binding signal of 0.902 enrichment R.

B16 gave a binding signal of 0.69 enrichment R.

In the case of B17, the binding signal was determined as 0.916 enrichment R.

In turn, B18 showed a binding signal of 0.908 enrichment R.

As to B19, the binding signal came to 0.941 enrichment R.

B20: the binding signal is 1.23 enrichment R.

B21 registered a binding signal of 0.714 enrichment R.

The molecule B22 gave a binding signal of 0.955 enrichment R.
